# According to the supplement of paper PMC8728848:
# This is one part of the list.
# B1: FliC (Pseudomonas aeruginosa), P72151 (protein)
# chain: MALTVNTNIASLNTQRNLNASSNDLNTSLQRLTTGYRINSAKDDAAGLQISNRLSNQISGLNVATRNANDGISLAQTAEGALQQSTNILQRIRDLALQSANGSNSDADRAALQKEVAAQQAELTRISDTTTFGGRKLLDGSFGTTSFQVGSNAYETIDISLQNASASAIGSYQVGSNGAGTVASVAGTATASGIASGTVNLVGGGQVKNIAIAAGDSAKAIAEKMDGAIPNLSARARTVFTADVSGVTGGSLNFDVTVGSNTVSLAGVTSTQDLADQLNSNSSKLGITASINDKGVLTITSATGENVKFGAQTGTATAGQVAVKVQGSDGKFEAAAKNVVAAGTAATTTIVTGYVQLNSPTAYSVSGTGTQASQVFGNASAAQKSSVASVDISTADGAQNAIAVVDNALAAIDAQRADLGAVQNRFKNTIDNLTNISENATNARSRIKDTDFAAETAALSKNQVLQQAGTAILAQANQLPQAVLSLLR
# How the values were obtained:
# Test in all cases: glycan array binding signal (z-score within array); higher = stronger binding
# Details in all cases: glycan notation: IUPAC condensed, linker removed
# [1] = molecular target: Fuc(a1-2)[Gal(a1-3)]Gal(b1-4)GlcNAc(b1-2)Man(a1-3)[Fuc(a1-2)[Gal(a1-3)]Gal(b1-4)GlcNAc(b1-2)Man(a1-6)]Man(b1-4)GlcNAc(b1-4)GlcNAc
# Outline: (§1)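 Arrays were curated from the Consortium for Functional Glycomics database, 3228 in total, and kept only where the protein sequence was available. Binding is expressed as a within-array Z-score. This score was averaged across arrays of the same protein sequence at different concentrations or buffers and across linkers, and negative values can be read as non-binding.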
# [2] = molecular target: Fuc(a1-2)[Gal(a1-3)]Gal(b1-4)GlcNAc(b1-2)Man(a1-3)[Fuc(a1-2)[Gal(a1-3)]Gal(b1-4)GlcNAc(b1-2)Man(a1-6)]Man(b1-4)GlcNAc(b1-4)[Fuc(a1-6)]GlcNAc
# Outline: as §1
# [3] = molecular target: Fuc(a1-2)[Gal(a1-3)]Gal(b1-4)GlcNAc(b1-3)GalNAc
# Outline: as §1
# [4] = molecular target: Fuc(a1-2)[Gal(a1-3)]Gal(b1-4)GlcNAc(b1-6)GalNAc
# Outline: as §1
# [5] = molecular target: Fuc(a1-2)[Gal(a1-3)]Gal(b1-4)[Fuc(a1-3)]Glc
# Outline: as §1
# [6] = molecular target: Fuc(a1-2)[Gal(a1-3)]Gal(b1-4)[Fuc(a1-3)]GlcNAc
# Outline: as §1
# [7] = molecular target: Fuc(a1-2)[Gal(a1-3)]Gal(b1-4)[Fuc(a1-3)]GlcNAc(b1-3)GalNAc
# Outline: as §1
# [8] = molecular target: Fuc(a1-2)[Gal(a1-4)]Gal(b1-4)GlcNAc
# Outline: as §1
# [9] = molecular target: Fuc(a1-2)[GalNAc(a1-3)]Gal
# Outline: as §1
# [10] = molecular target: Fuc(a1-2)[GalNAc(a1-3)]Gal(b1-3)GalNAc(a1-3)[Fuc(a1-2)]Gal(b1-4)GlcNAc
# Outline: as §1
# [11] = molecular target: Fuc(a1-2)[GalNAc(a1-3)]Gal(b1-3)GalNAc(b1-3)Gal(a1-4)Gal(b1-4)Glc
# Outline: as §1
# [12] = molecular target: Fuc(a1-2)[GalNAc(a1-3)]Gal(b1-3)GlcNAc
# Outline: as §1
# [13] = molecular target: Fuc(a1-2)[GalNAc(a1-3)]Gal(b1-3)GlcNAc(b1-2)Man(a1-3)[Fuc(a1-2)[GalNAc(a1-3)]Gal(b1-3)GlcNAc(b1-2)Man(a1-6)]Man(b1-4)GlcNAc(b1-4)GlcNAc
# Outline: as §1
# [14] = molecular target: Fuc(a1-2)[GalNAc(a1-3)]Gal(b1-3)GlcNAc(b1-2)Man(a1-3)[Fuc(a1-2)[GalNAc(a1-3)]Gal(b1-3)GlcNAc(b1-2)Man(a1-6)]Man(b1-4)GlcNAc(b1-4)[Fuc(a1-6)]GlcNAc
# Outline: as §1
# [15] = molecular target: Fuc(a1-2)[GalNAc(a1-3)]Gal(b1-3)GlcNAc(b1-3)GalNAc
# Outline: as §1
# [16] = molecular target: Fuc(a1-2)[GalNAc(a1-3)]Gal(b1-3)GlcNAc(b1-6)GalNAc
# Outline: as §1
# [17] = molecular target: Fuc(a1-2)[GalNAc(a1-3)]Gal(b1-4)Glc
# Outline: as §1
# [18] = molecular target: Fuc(a1-2)[GalNAc(a1-3)]Gal(b1-4)GlcNAc
# Outline: as §1
# [19] = molecular target: Fuc(a1-2)[GalNAc(a1-3)]Gal(b1-4)GlcNAc(b1-2)Man
# Outline: as §1
# [20] = molecular target: Fuc(a1-2)[GalNAc(a1-3)]Gal(b1-4)GlcNAc(b1-2)Man(a1-3)[Fuc(a1-2)[GalNAc(a1-3)]Gal(b1-4)GlcNAc(b1-2)Man(a1-6)]Man(b1-4)GlcNAc(b1-4)GlcNAc
# Outline: as §1
# [21] = molecular target: Fuc(a1-2)[GalNAc(a1-3)]Gal(b1-4)GlcNAc(b1-2)Man(a1-3)[Fuc(a1-2)[GalNAc(a1-3)]Gal(b1-4)GlcNAc(b1-2)Man(a1-6)]Man(b1-4)GlcNAc(b1-4)[Fuc(a1-6)]GlcNAc
# Outline: as §1
# [22] = molecular target: Fuc(a1-2)[GalNAc(a1-3)]Gal(b1-4)GlcNAc(b1-3)Gal(b1-4)GlcNAc
# Outline: as §1
# [23] = molecular target: Fuc(a1-2)[GalNAc(a1-3)]Gal(b1-4)GlcNAc(b1-3)Gal(b1-4)GlcNAc(b1-3)Gal(b1-4)GlcNAc
# Outline: as §1
# [24] = molecular target: Fuc(a1-2)[GalNAc(a1-3)]Gal(b1-4)GlcNAc(b1-3)GalNAc
# Outline: as §1
# [25] = molecular target: Fuc(a1-2)[GalNAc(a1-3)]Gal(b1-4)GlcNAc(b1-3)[Fuc(a1-2)[GalNAc(a1-3)]Gal(b1-4)GlcNAc(b1-6)]GalNAc
# Outline: as §1
# [26] = molecular target: Fuc(a1-2)[GalNAc(a1-3)]Gal(b1-4)GlcNAc(b1-6)GalNAc
# Outline: as §1
# [27] = molecular target: Fuc(a1-2)[GalNAc(a1-3)]Gal(b1-4)[Fuc(a1-3)]GlcNAc
# Outline: as §1
# [28] = molecular target: Fuc(a1-2)[GalNAc(a1-3)]Gal(b1-4)[Fuc(a1-3)]GlcNAc(b1-3)GalNAc
# Outline: as §1
# [29] = molecular target: Fuc(a1-2)[GalNAc(a1-4)]Gal(b1-4)GlcNAc
# Outline: as §1
# [30] = molecular target: Fuc(a1-2)[GalNAc(b1-3)]Gal
# Outline: as §1
binder,measurement,setting,value
B1,glycan array binding signal (z-score),[1],-0.158
same,glycan array binding signal (z-score),[2],-0.147
same,glycan array binding signal (z-score),[3],-0.098
same,glycan array binding signal (z-score),[4],-0.26
same,glycan array binding signal (z-score),[5],-0.172
same,glycan array binding signal (z-score),[6],-0.132
same,glycan array binding signal (z-score),[7],-0.228
same,glycan array binding signal (z-score),[8],-0.105
same,glycan array binding signal (z-score),[9],-0.06
same,glycan array binding signal (z-score),[10],-0.142
same,glycan array binding signal (z-score),[11],-0.139
same,glycan array binding signal (z-score),[12],-0.063
same,glycan array binding signal (z-score),[13],-0.1
same,glycan array binding signal (z-score),[14],-0.212
same,glycan array binding signal (z-score),[15],-0.175
same,glycan array binding signal (z-score),[16],2.71
same,glycan array binding signal (z-score),[17],-0.232
same,glycan array binding signal (z-score),[18],-0.147
same,glycan array binding signal (z-score),[19],0.454
same,glycan array binding signal (z-score),[20],-0.1
same,glycan array binding signal (z-score),[21],-0.174
same,glycan array binding signal (z-score),[22],-0.129
same,glycan array binding signal (z-score),[23],-0.186
same,glycan array binding signal (z-score),[24],-0.21
same,glycan array binding signal (z-score),[25],-0.127
same,glycan array binding signal (z-score),[26],-0.161
same,glycan array binding signal (z-score),[27],-0.212
same,glycan array binding signal (z-score),[28],-0.134
same,glycan array binding signal (z-score),[29],-0.188
same,glycan array binding signal (z-score),[30],-0.175
